# In all, about 45,000 compounds went through this assay and about 200 (0.44%) were called active. Inconclusive results (about 7%) are left out. Calls follow the shape of the dose curve; as a rule, active = well fitted activation curve with a large enough effect; inconclusive = small, poorly fitted or top-dose-only effect; inactive = no such curve, though single readings can be large or run the other way. Some of the results follow.
# Test: qHTS of TDP-43 Inhibitors: NCGC Sytravon Library Screen; also: 0% is about no effect; nearly all actives have a fitted effect of over 55% in size
# Conditions: yeast TDP-43 toxicity rescue, BacTiter-Glo growth, 24 h; series mostly up to 46.1 µM; growth rescue (activation): at the top concentration
# In short: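 TDP-43-expressing yeast, pregrown in raffinose, seeded at OD600 0.02 in galactose medium with compound for 24 hr at 30 deg C. Growth read by BacTiter-Glo luminescence, so rescue of toxicity appears as activation.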
row,SMILES,growth rescue (activation)
1,O=C(Cc1ccccc1)Nc1ccc(NC(=O)c2ccco2)cc1Cl,inactive: 14.8%
2,CSCc1c(C(=O)OCC(=O)c2ccc[nH]2)oc2ccccc12,inactive: -40.7%
3,COc1cc2c(cc1OC)C(C)N(S(=O)(=O)c1cccs1)CC2 (stereo not given),inactive: 23.2%
4,CCOC(=O)c1ccc(S(=O)(=O)N2CCN(C(=O)c3nn(C)c(=O)c4ccccc34)CC2)cc1,inactive: 1.88%
5,CCNC(=O)C1(C)CCCN(Cc2noc(-c3ccccc3OC)n2)C1 (stereo not given),inactive: 8.22%
6,CCc1cccc2c(C(=O)CSc3nncn3-c3ccc(OC)cc3)c[nH]c12,inactive: 4.89%
7,CCc1nnc(NC(=O)[C@@H](NC(=O)c2ccc(C(C)(C)C)cc2)C(C)C)s1,inactive: -1.3%
8,S=C(Nc1ccc2nsnc2c1)N1CCCCCC1,inactive: 23.6%
9,CN1CCN(c2ccc(Cl)cc2NC(=O)/C=C/c2cccc(F)c2)CC1,inactive: 8.11%
10,CC(C)C(NC(=O)c1ccc(Cl)cc1)C(=O)NCC1CCCO1 (stereo not given),inactive: 15.3%
11,COc1ccc(CN2CC(C(=O)N3CCOCC3)CC2=O)cc1 (stereo not given),inactive: 0.497%
12,COc1ccc(C2CC(=O)n3nc(C45CC6CC(CC(C6)C4)C5)nc3S2)cc1OC (stereo not given),inactive: 6.9%
13,O=C(Cn1nc(C(=O)O)c2ccccc2c1=O)Nc1cccc(Br)c1,inactive: 2.51%
14,CN1CCN(C(=O)CCn2nc(-c3ccccc3)c3ccccc3c2=O)CC1,inactive: 7.66%
15,CCc1ccc(OCC(=O)NCCN(C)C)c(Br)c1,inactive: -7.76%
16,CC(=O)NC(c1ccc(F)c(F)c1)c1nc(-c2ccccc2C)cs1 (stereo not given),inactive: 31.7%
17,CCOc1ccccc1-c1cc(C(=O)N2CCOCC2)c2ccccc2n1,inactive: 8.19%
18,O=C(N/N=C/c1ccc(-c2ccc([N+](=O)[O-])cc2)o1)[C@H]1C[C@@H]1c1ccccc1,inactive: -1.04%
19,Cc1ccc(/C=C/C(=O)OCC(=O)Nc2cccc(S(=O)(=O)N(C)C)c2)o1,inactive: 20.1%
20,Cc1c(NC(=S)Nc2ccccc2)c(=O)n(-c2ccccc2)n1C,inactive: 16.7%
21,CCOC(=O)C1CCN(C(=O)c2ccc(N(C)S(=O)(=O)c3ccc(OC)cc3)cc2)CC1,inactive: 1.39%
22,COc1ccc(N(CC(=O)Nc2cccc(C(C)=O)c2)S(C)(=O)=O)cc1OC,inactive: -17.4%
23,COc1cccc(CN(C(=O)CN2C(=O)c3ccccc3S2(=O)=O)C(C(=O)NCC2CCCO2)c2ccco2)c1 (stereo not given),inactive: 11.9%
24,CC(=O)Nc1cc(-c2ccccc2CN(C)C)cn2c(-c3ccc(F)c(Cl)c3)cnc12,inactive: -2.62%
25,Cc1ccc(CNC(=O)c2ccccc2N(C)S(C)(=O)=O)cc1,inactive: -9.08%
26,COc1ccc(CC(=O)OCC(=O)NCc2ccc(F)cc2)cc1,inactive: -4.17%
27,COc1ccccc1/C=C/C=N/NC(=O)c1cccs1,inactive: 8.6%

row,SMILES,growth rescue (activation)
1,O=C(Nc1cccc(OC(F)(F)F)c1)C1Cc2c(-c3ccco3)ccnc2O1 (stereo not given),inactive: 15.7%
2,COc1ccc(S(=O)(=O)Nc2ccccc2OC)cc1NC(=O)Cc1cccs1,inactive: 9.66%
3,O=S(=O)(c1ccc(S(=O)(=O)N2CCCC2)cc1)N1CCCCC1,inactive: 1.78%
4,COc1cccc(NC(=O)C2(C)CCN2Cc2ccc(OC(C)C)cc2)c1 (stereo not given),inactive: 8.25%
5,Oc1[nH]c2ccccc2c1N=Nc1c(F)c(F)c(C(F)(F)F)c(F)c1F,inactive: 11.8%
6,CCN1/C(=C/C(C)=C/c2sc3ccccc3[n+]2CC)Sc2ccccc21,inactive: -95.6%
7,O=C(CSc1nnc(-c2ccncc2)o1)c1ccc2c(c1)OCCO2,inactive: -2.69%
8,Cc1ccc(C(=O)Nc2ccc(C(=O)N/N=C/c3cccnc3)cc2)cc1,inactive: -2.2%
9,Cc1ccc(N=Nc2c(O)[nH]c(=O)[nH]c2=O)cc1S(=O)(=O)Nc1ccc(Br)cc1,inactive: -5.58%
10,CC(=O)N1CCN(c2ccc(NC(=O)c3cccc(Cl)c3Cl)cc2)CC1,inactive: -23.3%
11,COc1cccc(/C=C/C(=O)OCC(=O)N2c3ccccc3CC2C)c1OC (stereo not given),inactive: 17.1%
12,Cc1cccc(NS(=O)(=O)c2ccc(NC(=O)N3CCCCC3)cc2)c1,inactive: -0.296%
13,CCCOc1ccc(CNC(=S)NCc2ccc(OC(C)C)cc2)cc1,inactive: 6.13%
14,Cc1ccc(S(=O)(=O)NC(C(=O)N2CCOCCOCCOCCOCC2)C(C)C)cc1 (stereo not given),inactive: 17%
15,COc1ccccc1/C=N/NC(=O)c1ccc(Br)cc1,inactive: -0.934%
16,Nc1c(C(=O)Nc2ccc(OC(F)(F)F)cc2)sc2nc(-c3ccncc3)ccc12,inactive: 15.9%
17,O=C(COC(=O)c1ccco1)NCc1ccc(F)cc1,inactive: -0.365%
18,CC(C)(C)C(=O)NC(=S)Nc1cccc(C(=O)O)c1,inactive: 2.57%
19,N#Cc1ccc(/C=N/NC(=O)c2cc(-c3cccs3)nc3ccccc23)cc1,inactive: 0.849%
20,COC(=O)c1ccc(C(=O)OC)c(NC(=O)CN(C)Cc2ccc(Cl)c(Cl)c2)c1,inactive: 25.2%
21,CCOC(=O)N1CCN(C(=O)c2cc3n(n2)C(C(F)(F)F)CC(c2ccc4c(c2)OCO4)N3)CC1 (stereo not given),inactive: 17.1%
22,CCOC(=O)c1ccc(NC(=O)CSc2nc3sc(C(=O)O)c(C)c3c(=O)[nH]2)cc1,inactive: 7.39%
23,CN(Cc1cn(Cc2ccccc2)nc1-c1ccc2c(c1)OCO2)Cc1nccn1C,inactive: 13.3%
24,Cn1c(=O)n(C)c2cc(C(=O)O)ccc21,inactive: 32.3%
25,COC(=O)c1ccc(COC(=O)CNC(=O)C2CCCCC2)cc1,inactive: -0.868%
26,Cc1cc(C)cc(NC(=O)c2cc3c(=O)n4ccccc4nc3s2)c1,inactive: 12.3%
27,COc1cc(NC(=O)c2ccccn2)cc(OC)c1OC,inactive: 6.96%

row,SMILES,growth rescue (activation)
1,CC(=O)c1cccc(S(=O)(=O)N2CCN(c3nc4cc(C)cc(C)c4cc3C#N)CC2)c1,inactive: 17.2%
2,COc1ccc(-c2csc(NC(=O)CSc3nc(C)nc4sc(C(=O)O)c(C)c34)n2)cc1,inactive: 3.48%
3,Fc1cnc(N/N=C/c2ccc(-c3ccc(Br)cc3)o2)nc1N1CCOCC1,inactive: 8.76%
4,COc1ccc(NC(=O)Cc2coc3cc(C)ccc23)cn1,inactive: 30.3%
5,COc1cccc(CC(=O)OCC(=O)NCc2ccc3c(c2)OCO3)c1,inactive: -6.63%
6,CCOC(=O)N1CCN(Cc2nc3cc([N+](=O)[O-])ccc3n2C)CC1,inactive: 4.89%
7,O=C(CSc1nn(-c2ccc(F)cc2)c(=S)s1)NCC1CCCO1 (stereo not given),inactive: -5.95%
8,CCS(=O)(=O)N1Cc2ccccc2CC1C(=O)N(C)Cc1ccc(OC)cc1OC (stereo not given),inactive: 0.402%
9,CCN1C(=O)/C(=C/c2nc3ccccc3c(=O)[nH]2)c2ccccc21,inactive: -8.2%
10,C/C(=N\NC(=O)c1c(C)nc2ccccn12)c1ccccc1F,inactive: -10.7%
11,CCCCN(C(=O)CCC(=O)Nc1cc(C)on1)C(C(=O)NC1CCCC1)c1cccc(OC)c1 (stereo not given),inactive: 0.546%
12,O=C(NC1CC1)C(Cl)c1ccccc1 (stereo not given),inactive: -0.0995%
13,O=S(=O)(NN=C1CCCCC1)c1ccccc1,inactive: 2.6%
14,Cc1ccc(C)c(CN2C(=O)c3ccccc3S(=O)(=O)c3ccc(C(=O)NCCCN4CCCC(C)C4)cc32)c1 (stereo not given),inactive: 18%
15,CCN(CC)S(=O)(=O)c1ccc2[nH]c(=O)cc(C(=O)NCc3ccccc3)c2c1,inactive: 8.05%
16,O=C(O)c1ccccc1NCc1ccsc1,inactive: 15.6%
17,CCCOc1ccc(-c2nc(C#N)c(N3CCN(CC)CC3)o2)cc1,inactive: 12.4%
18,CC(C)OP(=O)(Nc1cccc2ccccc12)OC(C)C,inactive: 4.05%
19,O=C(COC(=O)/C=C/c1ccccc1[N+](=O)[O-])NCc1ccco1,inactive: -4.11%
20,CCOc1ccccc1-c1nc(CN(Cc2cnn(C)c2)C(C)C)c(C)o1,inactive: 14.2%
21,CC(=O)c1cccc(N(C(=O)CNC(=O)c2cccs2)C(C(=O)NCC2CCCO2)c2ccccc2)c1 (stereo not given),inactive: 12.1%
22,COc1cccc(-c2nnc(NC(=O)c3cccs3)s2)c1,inactive: 11.2%
23,CCCN(CCC)C(=O)c1cc2c(=O)[nH]c3ccc(C)cc3c2s1,inactive: 35.4%
24,CC(C)N1CCC1(C)C(=O)Nc1cccc2ccccc12 (stereo not given),inactive: 10.3%
25,CCOC(=O)C1CCN(CC(C)(C)NS(=O)(=O)c2ccccc2)CC1,inactive: 3.32%
26,CCC(CC)NC(=O)CO/N=C/c1ccc(Cl)cc1Cl,inactive: 10.8%
27,Cn1cc(CN2CCC(n3nccc3NC(=O)Cc3ccccc3)CC2)cn1,inactive: 0.757%

row,SMILES,growth rescue (activation)
1,CNS(=O)(=O)c1cccc(C(=O)OCC(=O)Nc2ccc(OC)cc2[N+](=O)[O-])c1,inactive: 22.7%
2,CC12CCC(C(=O)N(CCCCN3CCN(Cc4ccccc4)CC3)C1=O)C2(C)C (stereo not given),inactive: -15.8%
3,COc1ccc(C(=O)NC(=S)N2CCN(c3ccccc3OC)CC2)cc1,inactive: 8.06%
4,O=c1c2ccccc2c(-c2ccccc2)nn1-c1ccccn1,inactive: 3.73%
5,Cc1ccc(NC(=O)COC(=O)Cn2nc(-c3ccc(F)cc3)oc2=O)cc1C,inactive: 4.33%
6,CC(=O)Nc1c(C)ccc(CNC(=O)COc2ccc(F)cc2)c1C,inactive: 2.26%
7,COc1ccc(NC(=O)CSc2nc(SC)ns2)cc1,inactive: 29.3%
8,COc1ccc(SCC(=O)Nc2ccccc2Cl)cc1,inactive: 0.623%
9,COc1ccc(Cc2[nH]n3c(=O)c(Cl)c(C)nc3c2-c2ccccc2)cc1,inactive: 10%
10,O=C1N(c2ccc(Cl)cc2)C(c2ccc(Cl)cc2)N2CCCN12 (stereo not given),inactive: 9.11%
11,Cc1ccc(S(=O)(=O)NCc2cccnc2)cc1C(=O)N1CCCC1,inactive: -5.61%
12,C=CCn1c(SCC(=O)c2[nH]c(C)c(C(=O)OCC)c2C)nc2scc(-c3ccccc3)c2c1=O,inactive: -16.6%
13,CCOc1ccc(CN(C)Cc2cc(=O)oc3c(C)c(C)ccc23)cc1OC,inactive: -1.58%
14,CC(C)/C(=N/Nc1ccccc1[N+](=O)[O-])c1ccccc1,inactive: 7.59%
15,Cc1cccc(NC(=O)/C(C#N)=C\c2cn(CC(=O)O)c3ccccc23)c1,inactive: 13%
16,COC(=O)[C@@H](NC(=O)CCc1nnc(-c2ccsc2)o1)C(C)C,inactive: 0.443%
17,Cc1ccc(S(=O)(=O)N2CCC(N3CCN(C)CC3)CC2)cc1Cl,inactive: -9.62%
18,CCN(CC)CC(O)Cn1c(C)c(-c2ccccc2)c2cc([N+](=O)[O-])ccc21 (stereo not given),inactive: 18.4%
19,CN1/C(=C\C(=O)CSc2nnc(N)s2)C(C)(C)c2ccccc21,inactive: 11.7%
20,COc1ccccc1NS(=O)(=O)c1cc(NC(=O)C2CCCO2)ccc1C (stereo not given),inactive: -0.453%
21,O=[N+]([O-])c1cnn(-c2nc(-c3cccs3)cc(C(F)(F)F)n2)c1,inactive: 2.6%
22,COc1ccc(NC(=O)c2cccc3ccccc23)cc1,inactive: -4.68%
23,O=[N+]([O-])c1ccccc1/C=N/NC1=NS(=O)(=O)c2ccccc21,inactive: -6.54%
24,CS(=O)(=O)N1CCN(c2ccc(C(=O)NC34CC5CC(CC(C5)C3)C4)cc2[N+](=O)[O-])CC1,inactive: 12.4%

# Source: PubChem BioAssay AID1347073 (National Center for Advancing Translational Sciences (NCATS), 2019)
